{"source": "paper PMC4336329", "about": "(PLoS ONE, 2015)", "note": "Out of some 310,000 compounds screened, about 14,000 (4.5%) showed an effect of 50% or more. Effects have a minus sign here. This is one part of the list.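 Further: peak tail current of the secondary pulse compared with the same well before compound.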", "data": [{"target": "human ether-à-go-go-related gene (hERG) potassium channel (human, UniProt Q12809)", "sequence (Q12809 whole entry, looked up)": "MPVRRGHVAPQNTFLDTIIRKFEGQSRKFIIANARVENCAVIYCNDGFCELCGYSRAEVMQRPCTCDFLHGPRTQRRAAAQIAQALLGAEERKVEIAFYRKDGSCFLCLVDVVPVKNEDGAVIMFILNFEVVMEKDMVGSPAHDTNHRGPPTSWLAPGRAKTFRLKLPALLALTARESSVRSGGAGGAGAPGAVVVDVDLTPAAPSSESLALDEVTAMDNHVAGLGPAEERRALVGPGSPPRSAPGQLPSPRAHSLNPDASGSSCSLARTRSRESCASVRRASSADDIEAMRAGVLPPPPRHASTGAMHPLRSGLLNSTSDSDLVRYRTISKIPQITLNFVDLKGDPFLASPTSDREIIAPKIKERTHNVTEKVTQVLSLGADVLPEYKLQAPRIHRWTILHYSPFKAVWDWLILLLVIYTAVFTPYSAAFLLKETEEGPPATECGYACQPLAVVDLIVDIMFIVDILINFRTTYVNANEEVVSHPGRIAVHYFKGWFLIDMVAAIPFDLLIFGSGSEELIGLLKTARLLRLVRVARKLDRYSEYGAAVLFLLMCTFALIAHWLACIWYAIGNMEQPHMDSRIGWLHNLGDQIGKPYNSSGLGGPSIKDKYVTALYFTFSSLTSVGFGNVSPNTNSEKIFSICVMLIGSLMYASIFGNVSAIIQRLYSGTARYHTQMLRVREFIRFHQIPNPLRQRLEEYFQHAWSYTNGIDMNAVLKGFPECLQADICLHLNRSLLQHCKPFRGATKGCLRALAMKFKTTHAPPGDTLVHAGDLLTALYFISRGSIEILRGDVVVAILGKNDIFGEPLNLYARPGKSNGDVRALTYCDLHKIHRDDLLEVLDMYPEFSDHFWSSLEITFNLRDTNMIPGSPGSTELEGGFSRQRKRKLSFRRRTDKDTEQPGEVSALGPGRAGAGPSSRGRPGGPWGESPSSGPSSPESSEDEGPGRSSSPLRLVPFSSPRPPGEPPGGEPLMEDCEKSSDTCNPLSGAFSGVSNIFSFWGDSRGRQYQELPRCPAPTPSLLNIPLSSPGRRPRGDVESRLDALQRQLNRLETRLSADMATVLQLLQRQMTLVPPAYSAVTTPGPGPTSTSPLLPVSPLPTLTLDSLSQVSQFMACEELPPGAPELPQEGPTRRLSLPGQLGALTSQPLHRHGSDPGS", "assay": "primary screen, population patch clamp on CHO cells stably expressing hERG", "units": {"hERG current change (%, negative = inhibition) at 10uM": "%"}, "values": [{"smiles": "COc1ccc(/C=C/C(=O)NC(=S)N2CCN(c3ccccn3)CC2)cc1", "hERG current change (%, negative = inhibition) at 10uM": -6.85}, {"smiles": "CC(C)CCNC(=O)Cn1c(=O)oc2cc(S(=O)(=O)N3CC(C)CC(C)C3)ccc21", "note": "(stereo not shown)", "hERG current change (%, negative = inhibition) at 10uM": 13.3}, {"smiles": "COc1cnc(SCC(=O)O)[nH]c1=O", "hERG current change (%, negative = inhibition) at 10uM": 24}, {"smiles": "CCN(CCCNC(=O)CCCCn1c(=O)[nH]c2ccccc2c1=O)c1ccccc1", "hERG current change (%, negative = inhibition) at 10uM": -9.65}, {"smiles": "CCn1c(=O)c(-c2cc(=O)[nH][nH]2)c(O)c2ccccc21", "hERG current change (%, negative = inhibition) at 10uM": 3.65}, {"smiles": "CC1CCN(c2ccc(/C=N\\Nc3nncn3N)cc2[N+](=O)[O-])CC1", "hERG current change (%, negative = inhibition) at 10uM": -5.89}, {"smiles": "COc1ccc(/C=C/C(=O)N2CCC(C(N)=O)CC2)cc1S(=O)(=O)N1CCOCC1", "hERG current change (%, negative = inhibition) at 10uM": 24.7}, {"smiles": "O=C(Nc1ccc(Cl)cc1)c1cc2nc(-c3ccco3)cc(C(F)(F)F)n2n1", "hERG current change (%, negative = inhibition) at 10uM": -6.86}, {"smiles": "Cn1c([O-])c(Cc2cccc(Cl)c2Cl)c(=O)n(C)c1=O.[NH4+]", "hERG current change (%, negative = inhibition) at 10uM": 21.7}, {"smiles": "Nc1ccc(C(=O)N2CCN(S(=O)(=O)c3ccc(Br)cc3)CC2)cc1[N+](=O)[O-]", "hERG current change (%, negative = inhibition) at 10uM": -26.9}, {"smiles": "O=[N+]([O-])c1ccc(Nc2nccc(Cl)n2)cc1", "hERG current change (%, negative = inhibition) at 10uM": 6.81}, {"smiles": "CCCCS(=O)(=O)N1CCCC(C(=O)Oc2ccc(Cl)cc2)C1", "note": "(stereo not shown)", "hERG current change (%, negative = inhibition) at 10uM": 18.7}, {"smiles": "CCN(CC)c1ccc(S(=O)(=O)N2CCOCC2)cc1NC(=O)COC(=O)c1cccnc1SC", "hERG current change (%, negative = inhibition) at 10uM": -6.96}, {"smiles": "CCOC(=O)N1CCN(C(=S)Nc2ccccc2C)CC1", "hERG current change (%, negative = inhibition) at 10uM": -7.75}, {"smiles": "CCOC(=O)C1CCCN(C(=O)c2ccc3[nH]c4c(c3c2)CC(C)CC4)C1", "note": "(stereo not shown)", "hERG current change (%, negative = inhibition) at 10uM": -9}, {"smiles": "O=CN1CCN(C(=O)c2ccc([N+](=O)[O-])cc2)CC1", "hERG current change (%, negative = inhibition) at 10uM": -22.3}, {"smiles": "CCC(C)NCCCCOc1ccc(Cl)cc1C.O=C(O)C(=O)O", "note": "(stereo not shown)", "hERG current change (%, negative = inhibition) at 10uM": -58.6}, {"smiles": "CCN(CC)S(=O)(=O)c1ccc(N(C)C)c(NC(=O)CSCc2c(C)noc2C)c1", "hERG current change (%, negative = inhibition) at 10uM": -60.4}, {"smiles": "COc1ccc(NC(=S)Nc2ccc3nc(C)c(C)nc3c2)cc1", "hERG current change (%, negative = inhibition) at 10uM": -9.78}, {"smiles": "Cc1ccc(/C=N/N2CCN(Cc3cccc4ccccc34)CC2)o1", "hERG current change (%, negative = inhibition) at 10uM": -15.2}, {"smiles": "NS(=O)(=O)c1ccc2nc(NC(=O)C3=COCCO3)sc2c1", "hERG current change (%, negative = inhibition) at 10uM": 19.3}, {"smiles": "CN(CCO)c1ccc(-c2nn(C)c(=O)c3ccccc23)cc1[N+](=O)[O-]", "hERG current change (%, negative = inhibition) at 10uM": 2.14}, {"smiles": "CCOC(=O)C1=CC[C@@H](c2ccccc2Cl)N(S(=O)(=O)c2ccc(C)cc2)[C@H]1C(=O)OCC", "hERG current change (%, negative = inhibition) at 10uM": -18}, {"smiles": "CSCCC(NC(=O)c1ccccc1)C(=O)Nc1ccncc1", "note": "(stereo not shown)", "hERG current change (%, negative = inhibition) at 10uM": -14.4}, {"smiles": "CC(C1CC1)N(C(=O)NC1CCS(=O)(=O)C1)c1ccccc1", "note": "(stereo not shown)", "hERG current change (%, negative = inhibition) at 10uM": -4.02}, {"smiles": "CCOC(=O)c1ccc(NC(=O)NCCc2cnc[nH]2)cc1", "hERG current change (%, negative = inhibition) at 10uM": 4.44}, {"smiles": "Cc1ccc(S(=O)(=O)N(CC(=O)N2CCOCC2)CC(=O)N2CCOCC2)cc1", "hERG current change (%, negative = inhibition) at 10uM": 5.6}, {"smiles": "CCN(CCO)c1ccc(NC(=S)Nc2cccc(S(=O)(=O)N(C)C)c2)cc1", "hERG current change (%, negative = inhibition) at 10uM": -1.01}, {"smiles": "Cn1cnnc1SCC(=O)NC1CCCCC1", "hERG current change (%, negative = inhibition) at 10uM": 1.66}, {"smiles": "COC(=O)C1=COC(OC2OC(CO)C(O)C(O)C2O)C2C1C=CC2(O)CO", "note": "(stereo not shown)", "hERG current change (%, negative = inhibition) at 10uM": 2.46}, {"smiles": "CC(=O)N/N=C(\\N)c1nonc1N", "hERG current change (%, negative = inhibition) at 10uM": 16.3}, {"smiles": "CC1(C)CC(=O)C=C(Nc2cccc(Cl)c2Cl)C1", "hERG current change (%, negative = inhibition) at 10uM": -30.1}, {"smiles": "COc1ccccc1N1CCN(C(=O)c2c(-c3ccccc3Cl)noc2C)CC1", "hERG current change (%, negative = inhibition) at 10uM": -51.2}, {"smiles": "Cc1cccc(N=C2NC(=O)/C(=C/c3cccnc3)S2)c1", "hERG current change (%, negative = inhibition) at 10uM": 5.71}, {"smiles": "O=C(O)COCC(=O)N1CCCN(c2nccc(C(F)(F)F)n2)CC1", "hERG current change (%, negative = inhibition) at 10uM": 17.7}, {"smiles": "Cc1[nH]n(-c2ccc(Cl)cc2)c(=O)c1C=Nc1ccc(S(=O)(=O)N2CCOCC2)cc1", "hERG current change (%, negative = inhibition) at 10uM": -16.6}, {"smiles": "CCOC(=O)c1cnn(-c2nc(SC)nc3sc4c(c23)CCCC4)c1N", "hERG current change (%, negative = inhibition) at 10uM": -7.67}, {"smiles": "CC(=O)Nc1ccc(Nc2cc(C)nc3c(-c4ccccc4)c(C)nn23)cc1", "hERG current change (%, negative = inhibition) at 10uM": -12.5}, {"smiles": "COCCN=C1N[C@@H](c2cccc(C(F)(F)F)c2)C(C(=O)OC)=C(C)N1Cc1ccccc1", "hERG current change (%, negative = inhibition) at 10uM": -11.9}, {"smiles": "COCCN1Cc2cccc(C(=O)NCC3CCN(CC(C)C)C3)c2C1=O", "note": "(stereo not shown)", "hERG current change (%, negative = inhibition) at 10uM": -29.2}, {"smiles": "CCOC(=O)C1CCN(S(=O)(=O)CCNC(=O)c2cccc(OC)c2)CC1", "hERG current change (%, negative = inhibition) at 10uM": -19.5}, {"smiles": "Cc1ccc(CNC(=O)CCn2nc(-c3ccc(Cl)cc3)ccc2=O)cc1", "hERG current change (%, negative = inhibition) at 10uM": -35.3}, {"smiles": "Cc1ccc(S(=O)(=O)N2CCC[C@H]2C(=O)OC(C)C(=O)Nc2ncc(Cl)cc2Cl)cc1", "note": "(stereo partly shown)", "hERG current change (%, negative = inhibition) at 10uM": -34.5}]}]}
